{"source": "PubChem BioAssay AID686979", "about": "(National Center for Advancing Translational Sciences (NCATS), 2013)", "note": "The whole screen tested about 420,000 compounds, of which about 50,000 (12%) were called active. The shares of active, inactive and inconclusive entries below differ from those in the screen. Calls follow the shape of the dose curve; as a rule, active = well fitted inhibition curve with a large enough effect; inconclusive = small, poorly fitted or top-dose-only effect; inactive = flat fitted curve, though single readings scatter. No potency is given beside an inconclusive call; the fits are too rough. % is scaled to controls: 0 for no effect and ±100 for the full control effect; potency is read from the fitted curve at half-maximal effect; tags tell the direction and shape of the fitted curve."}
{"assay": "qHTS for Inhibitors of human tyrosyl-DNA phosphodiesterase 1 (TDP1): qHTS in cells in presence of CPT; also: nearly all actives have a fitted effect of over 55% in size", "details": "chicken DT40 Tdp1-/-;hTDP1 cells + 20 nM CPT, ATP luminescence, 48 h; activity change, negative = growth inhibition: at 46.2 µM (top of the series) unless noted", "outline": "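Chicken DT40 Tdp1-/- cells stably complemented with human TDP1 were seeded at 400 cells/well in medium containing 20 nM camptothecin, exposed to pin-transferred compounds, and grown at 37 °C for at least 48 hr. Viability was read as ATP luminescence.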"}
{"smiles": "COc1ccc(NS(=O)(=O)c2ccc(NC(=O)C3CC3)cc2)cc1", "Potency": "active: 8.2 µM"}
{"smiles": "CC1CCc2sc(C(=O)OCC(=O)NCc3ccc(F)cc3)cc2C1", "note": "(stereo unspecified)", "Potency": "active: 20.6 µM"}
{"smiles": "O=C(CCNC(=O)c1ccc(Br)cc1)NCc1cccnc1", "Potency": "inactive"}
{"smiles": "Cn1c(=O)c2c(nc(N/N=C3\\CCCc4ccccc43)n2Cc2ccc(F)cc2)n(C)c1=O", "Potency": "inconclusive [inhibitor, single point]"}
{"smiles": "Cc1cc(C)nc(Nc2ccc(C(=O)O)cc2)n1", "Potency": "inactive"}
{"smiles": "O=C(NNC(=O)c1sccc1-n1cccc1)c1ccccc1", "Potency": "inconclusive [inhibitor, single point]"}
{"smiles": "C/C(=C\\COc1ccc2ccc(=O)oc2c1)CC[C@@H](O)C(C)(C)O", "Potency": "inconclusive [inhibitor, partial curve]"}
{"smiles": "CCc1ccc(OCCOCCN2CCN(C)CC2)cc1", "Potency": "inactive"}
{"smiles": "CCNS(=O)(=O)c1ccc(CCC(=O)N2CCN(c3cccc(Cl)c3)CC2)cc1", "Potency": "inconclusive [inhibitor, single point]"}
{"smiles": "CC(=O)c1cccc(NC(=O)COc2ccccc2C(=O)Nc2ccccc2)c1", "Potency": "inconclusive [inhibitor, single point]"}
{"smiles": "CCOC(=O)N1CCN(C(=O)/C=C/c2c(C)nn(-c3ccc(F)cc3)c2Cl)CC1", "Potency": "inconclusive [inhibitor, single point]"}
{"smiles": "COc1ccc(NC(=O)CCN2CCCC2)c(OC)c1", "Potency": "inactive"}
{"smiles": "CCC(=O)Nc1cc2c(cc1Cl)-c1ccccc1C2", "activity change, negative = growth inhibition": "inconclusive: -30.5% [inhibitor]"}
{"smiles": "Oc1ccc(Br)cc1/C=N/n1cnc2ccccc21", "Potency": "inconclusive [inhibitor, partial curve, poor fit]"}
{"smiles": "CCOc1ccc(C(=O)NC2CCN(C(=S)Nc3ccccc3C)CC2)cc1", "Potency": "inactive"}
{"smiles": "COc1cc(NC(=O)Cn2c(=O)n(CC(=O)NCCc3ccc(OC)c(OC)c3)c(=O)c3sccc32)cc(OC)c1", "Potency": "inactive"}
{"smiles": "Cc1ccc(C)c(N2CCN(S(=O)(=O)CC34CCC(CC3=O)C4(C)C)CC2)c1", "note": "(stereo unspecified)", "Potency": "inconclusive [inhibitor, single point]"}
{"smiles": "Cc1cc(C(=O)CN2c3cccc4cccc(c34)S2(=O)=O)c(C)n1C", "Potency": "active: 4.61 µM"}
{"smiles": "Cc1nc(-c2ccc(S(=O)(=O)N3CCN(c4cccc(Cl)c4)CC3)cc2)co1", "Potency": "inconclusive [inhibitor, single point]"}
{"smiles": "COc1ccc(NS(=O)(=O)c2ccc3c(c2)Cc2ccccc2-3)cn1", "Potency": "inconclusive [inhibitor, single point]"}
{"smiles": "Cc1ccc(S(=O)(=O)N(C)c2ccc(OCC(=O)Nc3cccc(-n4cnnn4)c3C)cc2)cc1", "Potency": "inconclusive [inhibitor, single point]"}
{"smiles": "Cc1cccc(CCN=C(N)NS(=O)(=O)c2ccccc2)c1", "Potency": "inconclusive [inhibitor, single point]"}
{"smiles": "Cc1nc(C(=O)Nc2ccc(Cl)cc2)nn1-c1ccc([N+](=O)[O-])cc1", "Potency": "inconclusive [inhibitor, single point]"}
{"smiles": "COc1ccc(CCNC(=O)CSc2nc(-c3ccco3)cc(C(F)(F)F)n2)cc1", "Potency": "inconclusive [inhibitor, single point]"}
{"smiles": "CC(C)c1cc(C(=O)N2CCOc3ccc(CN4CCC(Oc5cccnc5)CC4)cc3C2)n[nH]1", "activity change, negative = growth inhibition": "inactive: -19.6% [at 9.04 µM]"}
{"smiles": "CC(C)(C)[C@H]1COC(=O)[C@H](NC(=O)OCC2c3ccccc3-c3ccccc32)C/C=C\\C[C@@H](CC(=O)N[C@@H](CO)Cc2ccccc2)C(=O)N1", "Potency": "active: 7.31 µM"}
{"smiles": "COc1ccc(OC)c(-c2ccnc(-n3ncc(C(=O)NC(C)(C)CO)c3C3CC3)n2)c1", "activity change, negative = growth inhibition": "inactive: -3.36% [at 9.04 µM]"}
{"smiles": "COCc1ccc(CN2CCCC(C(=O)Nc3ccccc3-c3ccc(OC)cc3)C2)o1", "note": "(stereo unspecified)", "Potency": "inconclusive [inhibitor, single point]"}
{"smiles": "Cc1c(NC(=O)CSc2ccc(Cl)cc2)cccc1-c1nc2ncccc2o1", "Potency": "inconclusive [inhibitor, single point]"}
{"smiles": "Cc1nc2ncccn2c1-c1csc(Nc2ccc(N(C)C)cc2)n1", "Potency": "active: 0.0052 µM"}
{"smiles": "CCCCNc1ncnc2c1cnn2-c1ccccc1", "Potency": "active: 2.31 µM"}
{"smiles": "CSc1ccccc1NC(=O)CN(C)CC(=O)Nc1ccc(Cl)cc1F", "Potency": "active: 23.1 µM"}
{"smiles": "COc1ccc(-n2nnnc2C2CCN(S(=O)(=O)c3ccc(F)cc3Cl)CC2)cc1", "Potency": "inconclusive [inhibitor, partial curve]"}
{"smiles": "COc1cc(/C=C2/C(=O)N(c3ccc(C)c(C)c3)N=C2C)cc([N+](=O)[O-])c1O", "Potency": "inactive"}
{"smiles": "Cc1ccc(C=O)cc1Cl", "Potency": "inactive"}
{"smiles": "O=C(Nc1ccc(N2CCOCC2)cc1Cl)C1CCN(C(=O)OCc2ccccc2)CC1", "Potency": "inconclusive [inhibitor, single point]"}
{"smiles": "C1=CC2c3ccccc3NC(c3ccncc3)C2C1", "note": "(stereo unspecified)", "Potency": "inconclusive [inhibitor, single point]"}
{"smiles": "Nc1ncnc2c1ncn2[C@@H]1O[C@H](CNCc2c(OCc3ccccc3F)ccc3ccccc23)[C@@H](O)[C@H]1O", "Potency": "inconclusive [inhibitor, single point]"}
{"smiles": "COc1cc(OC)cc(-c2oc3cccnc3c2C#CCCO)c1", "Potency": "inconclusive [inhibitor, single point]"}
{"smiles": "CC(C)=CCC1=C(O)c2ccccc2C(=O)C1=O", "Potency": "inconclusive [inhibitor, single point]"}
{"smiles": "CC(=O)NCCNc1nc2c(-c3cccc(C)c3)nnn2c2ccc(Cl)cc12", "Potency": "inactive"}
{"smiles": "Cn1cnnc1SCC(=O)N1CCC(Cc2ccccc2)CC1", "Potency": "inconclusive [inhibitor, single point]"}
{"smiles": "CSc1ccc(CNC(=O)Cc2csc3ccccc23)cc1", "Potency": "inconclusive [inhibitor, single point]"}
{"smiles": "O=C(N/N=C\\c1ccc([N+](=O)[O-])o1)c1cncc(Br)c1", "Potency": "active: 4.61 µM"}
{"smiles": "COc1ccc2cc(CCNC(=O)c3ccc(Br)o3)c(=O)[nH]c2c1", "Potency": "inconclusive [inhibitor, single point]"}
{"smiles": "O=C(COC(=O)/C=C/c1cccc(C(F)(F)F)c1)NCc1ccco1", "Potency": "inactive"}
{"smiles": "O=C(O)C1CC=CCC1C(=O)Nc1ccccc1", "note": "(stereo unspecified)", "Potency": "inactive"}
{"smiles": "N/C(=N\\OC(=O)/C=C/c1ccccc1Cl)c1ccncc1", "Potency": "inactive"}
{"smiles": "CC(C)N(Cc1ccccc1)C(=O)CCc1ccccc1", "Potency": "active: 14.6 µM"}
{"smiles": "Cc1ccc(CN2CC(N3CCN(Cc4cccc(C)c4)CC3)CS2(=O)=O)cc1", "note": "(stereo unspecified)", "Potency": "inconclusive [inhibitor, single point]"}
{"smiles": "COC(=O)c1c(NC(=O)CCc2ccc(C)o2)sc(C)c1C", "Potency": "inconclusive [inhibitor, single point]"}
{"smiles": "COc1ccc(CNC(=O)CN(c2cc(C(F)(F)F)ccc2Cl)S(C)(=O)=O)cc1", "Potency": "inactive"}
{"smiles": "CCn1c(C)c(C)c2cc(C(=O)NCc3ccc(N(C)C)cc3)ccc21", "Potency": "inconclusive [inhibitor, single point]"}
{"smiles": "Nc1ncnc2c1ncn2[C@@H]1O[C@H](C(=O)NCC2CCN(Cc3ccccc3)CC2)[C@@H](O)[C@H]1O", "Potency": "inactive"}
{"smiles": "CCc1nc(NCCN)c(C#N)c2c1CSC(C)(C)C2", "Potency": "inconclusive [inhibitor, single point]"}
{"smiles": "CC(C)(C)NC(=O)Cc1ccc(S(=O)(=O)N2CCCC2)s1", "Potency": "inactive"}
{"smiles": "Cc1cc(N2CCN(C)CC2)nc2ccc(NC(=S)N3CCN(c4ccc(F)cc4)CC3)cc12", "Potency": "inconclusive [inhibitor, single point]"}
{"smiles": "COC(=O)c1c(Sc2ccccc2)c2ccccc2n1C", "Potency": "inactive"}
{"smiles": "COc1ccc(-c2cn[nH]c2-c2ccc(OCc3ccc([N+](=O)[O-])cc3)cc2O)cc1", "Potency": "inconclusive [inhibitor, single point]"}
{"smiles": "Cc1ccc2ncc(S(=O)(=O)c3ccccc3)c(N3CCCCC3C)c2c1", "note": "(stereo unspecified)", "Potency": "active: 23.1 µM"}
{"smiles": "COc1ccc(Cl)cc1NC(=O)Cn1ncc2c3ccccc3n(Cc3ccccc3)c2c1=O", "Potency": "inconclusive [inhibitor, partial curve]"}
{"smiles": "CCOC(=O)c1c(-c2ccccc2)oc2ccc(OCC(N)=O)cc12", "Potency": "inconclusive [inhibitor, single point]"}
{"smiles": "O=C(Nc1cccc2ccccc12)c1[nH]c(-c2ccccc2)c2c1C(=O)N(C1CC1)C2=O", "Potency": "inconclusive [inhibitor, single point]"}
{"smiles": "O=C1c2ccccc2C(c2nnnn2-c2ccc3c(c2)OCCO3)N1Cc1ccccc1", "note": "(stereo unspecified)", "Potency": "inconclusive [inhibitor, single point]"}
{"smiles": "CCN1/C(=C\\C(=S)Nc2ccccc2)Sc2ccccc21", "Potency": "active: 3.66 µM"}
{"smiles": "C=CCN(C(=O)C1CC(=O)N(C2CCCC2)C1)c1nc(-c2ccc(S(C)(=O)=O)cc2)cs1", "note": "(stereo unspecified)", "Potency": "active: 14.6 µM"}
{"smiles": "CCOC(=O)C1CCCN(C(=O)c2sc3nc(-c4ccc(F)cc4)cn3c2C)C1", "note": "(stereo unspecified)", "Potency": "inconclusive [inhibitor, partial curve, poor fit]"}
{"smiles": "O=C(C(=Cc1ccc(O)cc1)c1ccccc1)c1ccccc1", "Potency": "inconclusive [inhibitor, single point]"}
{"smiles": "O=C1[C@H](CC[C@H](O)c2ccc(F)cc2)[C@@H](c2ccc(O)cc2)N1c1ccc(F)cc1", "Potency": "inconclusive [inhibitor, single point]"}
{"smiles": "C=CCN=C1N[C@@H](c2ccccc2)C(C(=O)OC)=C(C)N1CCOC", "Potency": "inactive"}
{"smiles": "CCOC(=O)C1=NN(C(=O)c2ccc(OC)cc2)C(O)(c2ccc(Cl)cc2)C1", "note": "(stereo unspecified)", "Potency": "inconclusive [inhibitor, single point]"}
